Data as given in PMC10499876.
These are yes or no findings as the source states them, for the method shown. For some of these results: In cells and extracts the contact can be indirect. Some entries that bind do so weakly or less than the wild type. Tags and fused reporters may be left off the sequences shown.

Protein sequences, listed by entry. Tags and fused reporters are not part of them.
UniProt P17839: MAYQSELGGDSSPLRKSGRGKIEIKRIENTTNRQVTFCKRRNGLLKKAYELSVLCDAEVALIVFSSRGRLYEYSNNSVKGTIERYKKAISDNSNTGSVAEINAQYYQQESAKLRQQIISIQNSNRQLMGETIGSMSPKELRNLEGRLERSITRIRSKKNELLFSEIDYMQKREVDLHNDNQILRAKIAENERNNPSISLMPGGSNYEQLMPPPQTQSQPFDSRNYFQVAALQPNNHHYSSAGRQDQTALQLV
UniProt O22456: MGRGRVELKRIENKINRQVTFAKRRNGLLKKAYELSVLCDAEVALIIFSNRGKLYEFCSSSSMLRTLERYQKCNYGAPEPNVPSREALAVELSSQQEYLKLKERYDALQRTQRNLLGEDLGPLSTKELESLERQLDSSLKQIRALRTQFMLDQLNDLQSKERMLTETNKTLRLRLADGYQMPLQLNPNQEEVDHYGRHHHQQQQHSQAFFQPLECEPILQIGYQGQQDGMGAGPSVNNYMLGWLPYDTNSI
UniProt Q38836: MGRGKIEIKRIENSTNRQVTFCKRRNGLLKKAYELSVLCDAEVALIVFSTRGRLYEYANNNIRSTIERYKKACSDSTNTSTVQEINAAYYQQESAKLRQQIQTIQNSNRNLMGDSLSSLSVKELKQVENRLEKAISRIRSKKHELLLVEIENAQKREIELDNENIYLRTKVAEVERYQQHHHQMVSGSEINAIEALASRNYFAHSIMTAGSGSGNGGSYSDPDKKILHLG

T1: BELL1 (BEL1), full length, yeast two-hybrid bait (Arabidopsis) (UniProt Q38897)
T1 sequence: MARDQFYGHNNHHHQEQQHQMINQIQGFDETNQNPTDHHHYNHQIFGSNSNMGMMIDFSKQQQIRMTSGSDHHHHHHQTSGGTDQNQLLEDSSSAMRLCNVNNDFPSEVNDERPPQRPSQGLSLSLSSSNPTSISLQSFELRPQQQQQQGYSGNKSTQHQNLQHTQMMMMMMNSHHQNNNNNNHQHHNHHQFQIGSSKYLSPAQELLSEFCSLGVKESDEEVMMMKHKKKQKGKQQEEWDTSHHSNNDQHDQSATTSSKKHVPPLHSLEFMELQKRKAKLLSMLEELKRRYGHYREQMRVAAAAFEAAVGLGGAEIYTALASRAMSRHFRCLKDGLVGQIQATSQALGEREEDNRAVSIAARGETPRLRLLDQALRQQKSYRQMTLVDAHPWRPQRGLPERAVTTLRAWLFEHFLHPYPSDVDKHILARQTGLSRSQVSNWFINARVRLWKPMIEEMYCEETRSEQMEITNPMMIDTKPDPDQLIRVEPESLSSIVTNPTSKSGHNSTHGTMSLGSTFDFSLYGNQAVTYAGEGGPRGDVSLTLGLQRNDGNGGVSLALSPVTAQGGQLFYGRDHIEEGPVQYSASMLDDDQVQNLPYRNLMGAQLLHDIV


Key:
[1] = target: AGAMOUS (AG), full length, yeast two-hybrid bait (Arabidopsis) (UniProt P17839); assay: two-hybrid; bait in pDEST32 (DBD), prey in pDEST22 (AD), S. cerevisiae AH109; growth on SD-Leu-Trp-His with 2.5 mM 3-amino-1,2,4-triazole, 10-, 100- and 1,000-fold dilutions
[2] = target: …3 (SEP3), full length, yeast two-hybrid bait (Arabidopsis) (UniProt O22456); assay: as above
[3] = target: T1, BELL1 (BEL1), full length, yeast two-hybrid bait (Arabidopsis); assay: as above
[4] = target: … (STK), yeast two-hybrid bait (Arabidopsis) (UniProt Q38836); assay: as above
[5] = target: AG-SEP3 complex (AG with a luciferase half, co-expressed with untagged 35S-SEP3) (Arabidopsis) (UniProt P17839+O22456); assay: split reporter; LCI in tobacco leaves; the luciferase halves on AG and on BEL1, 35S-SEP3 co-expressed, with or without mTCP4-MYC; 22 °C, or 28 °C for 4 hr (signal increased with mTCP4-MYC, weakened at 28 °C)

binding [1] | binding [2] | binding [3] | binding [4] | binding [5] | Binder
no binding | no binding | – | – | – | TCP16 (yeast two-hybrid prey, activation domain fusion) (protein, UniProt Q9M1U4 1-165) MDSKNGINNSQKARRTPKDRHLKIGGRDRRIRIPPSVAPQLFRLTKELGFKTDGETVSWLLQNAEPAIFAATGHGVTTTSNEDIQPNRNFPSYTFNGDNISNNVFPCTVVNTGHRQMVFPVSTMTDHAPSTNYSTISDNYNSTFNGNATASDTTSAATTTATTTV
binds | binds | – | no binding | – | TCP18 (yeast two-hybrid prey, activation domain fusion) (protein, UniProt A1YKT1 1-433) MNNNIFSTTTTINDDYMLFPYNDHYSSQPLLPFSPSSSINDILIHSTSNTSNNHLDHHHQFQQPSPFSHFEFAPDCALLTSFHPENNGHDDNQTIPNDNHHPSLHFPLNNTIVEQPTEPSETINLIEDSQRISTSQDPKMKKAKKPSRTDRHSKIKTAKGTRDRRMRLSLDVAKELFGLQDMLGFDKASKTVEWLLTQAKPEIIKIATTLSHHGCFSSGDESHIRPVLGSMDTSSDLCELASMWTVDDRGSNTNTTETRGNKVDGRSMRGKRKRPEPRTPILKKLSKEERAKARERAKGRTMEKMMMKMKGRSQLVKVVEEDAHDHGEIIKNNNRSQVNRSSFEMTHCEDKIEELCKNDRFAVCNEFIMNKKDHISNESYDLVNYKPNSSFPVINHHRSQGAANSIEQHQFTDLHYSFGAKPRDLMHNYQNMY

Further lines, the binder ahead of its results:

Binder | binding [1] | binding [2] | binding [3] | binding [4] | binding [5]
TCP4 (yeast two-hybrid prey, activation domain fusion) (protein, UniProt Q8LPR5 1-420) MSDDQFHHPPPPSSMRHRSTSDAADGGCGEIVEVQGGHIVRSTGRKDRHSKVCTAKGPRDRRVRLSAHTAIQFYDVQDRLGFDRPSKAVDWLIKKAKTSIDELAELPPWNPADAIRLAAANAKPRRTTAKTQISPSPPPPQQQQQQQQLQFGVGFNGGGAEHPSNNESSFLPPSMDSDSIADTIKSFFPVIGSSTEAPSNHNLMHNYHHQHPPDLLSRTNSQNQDLRLSLQSFPDGPPSLLHHQHHHHTSASASEPTLFYGQSNPLGFDTSSWEQQSSEFGRIQRLVAWNSGGGGGATDTGNGGGFLFAPPTPSTTSFQPVLGQSQQLYSQRGPLQSSYSPMIRAWFDPHHHHQSISTDDLNHHHHLPPPVHQSAIPGIGFASGEFSSGFRIPARFQGQEEEQHDGLTHKPSSASSISRH | binds | binds | binds | no binding | –
BEL1 fused with a luciferase half (35Spro-BEL1-nLUC by the methods) (protein, UniProt Q38897 1-611) MARDQFYGHNNHHHQEQQHQMINQIQGFDETNQNPTDHHHYNHQIFGSNSNMGMMIDFSKQQQIRMTSGSDHHHHHHQTSGGTDQNQLLEDSSSAMRLCNVNNDFPSEVNDERPPQRPSQGLSLSLSSSNPTSISLQSFELRPQQQQQQGYSGNKSTQHQNLQHTQMMMMMMNSHHQNNNNNNHQHHNHHQFQIGSSKYLSPAQELLSEFCSLGVKESDEEVMMMKHKKKQKGKQQEEWDTSHHSNNDQHDQSATTSSKKHVPPLHSLEFMELQKRKAKLLSMLEELKRRYGHYREQMRVAAAAFEAAVGLGGAEIYTALASRAMSRHFRCLKDGLVGQIQATSQALGEREEDNRAVSIAARGETPRLRLLDQALRQQKSYRQMTLVDAHPWRPQRGLPERAVTTLRAWLFEHFLHPYPSDVDKHILARQTGLSRSQVSNWFINARVRLWKPMIEEMYCEETRSEQMEITNPMMIDTKPDPDQLIRVEPESLSSIVTNPTSKSGHNSTHGTMSLGSTFDFSLYGNQAVTYAGEGGPRGDVSLTLGLQRNDGNGGVSLALSPVTAQGGQLFYGRDHIEEGPVQYSASMLDDDQVQNLPYRNLMGAQLLHDIV | – | – | – | – | binds
